# Test results from the supplement of paper PMC3334620.
# In all, about 33,000 sequences were measured (“E-score (-0.5 to 0.5)”: median about -0.012, highest 2% from about 0.27 on). The list shows a part of the results.
# Biological target: T1, Vhr1 (UniProt P40522)
# T1 sequence: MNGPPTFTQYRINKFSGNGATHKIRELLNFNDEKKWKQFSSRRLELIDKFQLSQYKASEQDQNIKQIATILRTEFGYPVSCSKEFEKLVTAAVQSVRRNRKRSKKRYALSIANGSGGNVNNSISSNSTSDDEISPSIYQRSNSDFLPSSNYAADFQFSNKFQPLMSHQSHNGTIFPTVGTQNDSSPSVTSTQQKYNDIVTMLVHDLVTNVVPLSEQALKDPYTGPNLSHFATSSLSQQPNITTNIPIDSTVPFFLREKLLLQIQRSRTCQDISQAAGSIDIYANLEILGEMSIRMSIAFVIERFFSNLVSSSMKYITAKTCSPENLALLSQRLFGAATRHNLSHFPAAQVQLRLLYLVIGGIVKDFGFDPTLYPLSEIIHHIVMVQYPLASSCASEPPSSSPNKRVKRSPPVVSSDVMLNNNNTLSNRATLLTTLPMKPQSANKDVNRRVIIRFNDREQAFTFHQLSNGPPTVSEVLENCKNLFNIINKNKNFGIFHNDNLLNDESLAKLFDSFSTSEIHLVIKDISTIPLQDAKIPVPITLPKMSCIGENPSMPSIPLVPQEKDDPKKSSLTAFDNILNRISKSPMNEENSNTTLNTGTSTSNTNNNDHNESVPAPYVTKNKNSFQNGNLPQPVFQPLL
# Assay: PBM E-score (8-mer binding enrichment) (E-score (-0.5 to 0.5)); higher = stronger / more preferred TF binding; most listed sequences are background and not binding sites
# Settings: protein concentration: 200 nM; construct: GST-full length
# How it was run: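 Detection of bound protein used fluorescent anti-GST, with scans normalised by masliner. The proteins were GST-tagged yeast transcription factors applied at about 100-200 nM to universal all-10-mer Agilent arrays made double-stranded by primer extension. Each ungapped eight-base word, pooled with its reverse complement, was scored with an E-score from the Universal PBM Analysis Suite.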
row,Sequence,PBM E-score
1,TAGATGGA,-0.115
2,GAGTCCGC,0.224
3,AAGCCAGA,-0.165
4,AACCTAAT,-0.0442
5,ACTACCGA,-0.146
6,ATTCCGCG,0.0866
7,AATATGAA,-0.0263
8,CTGCCTGA,0.142
9,CAGCTCGG,0.0332
10,ACACGAAT,0.0686
11,GTATCGGA,-0.254
12,AATTCAAA,-0.204
13,ACCAAGGG,-0.0786
14,GGGTGTAA,0.0595
15,GGTCGCGA,0.194
16,AGGGTGCC,-0.121
17,ATAGTCAA,0.165
18,GTGACATA,0.132
19,CTCCAGAG,0.00702
20,CCTCCTAG,0.0743
21,AGGACTGG,0.113
22,CCACAGCC,0.0804

row,Sequence,PBM E-score
1,CCCAGTCC,0.0481
2,CCCACTGA,0.11
3,CACAAAGG,-0.0422
4,AGCAGACA,-0.128
5,ACGGACAT,-0.0239
6,AACAGGAT,-0.0425
7,GGGCCAAC,-0.157
8,CTTTGGCA,-0.0623
9,AAAAGGAA,-0.0308
10,GACTCTGC,0.24
11,GGAATGTA,-0.0706
12,CTACCTAA,0.0659
13,AGCTGGAC,-0.17
14,AAAACTAC,-0.0122
15,CATGGCTC,0.28
16,CCCAGGGC,-0.113
17,GGTCAAAA,-0.123
18,CATGTGAA,-0.0938
19,CCAATGTC,-0.167
20,ACCGGACC,0.0247
21,GCTACTTA,-0.168
22,ACTAACGG,0.0911

row,Sequence,PBM E-score
1,ATGGCGTA,0.00916
2,GATAACAA,0.00571
3,GAAGACTA,0.163
4,GATGGCCC,-0.233
5,ACCGACCT,0.0122
6,CTCCACGC,-0.0874
7,CCCTAGTA,-0.0349
8,CATGGTGA,0.217
9,GCGTCCCC,-0.279
10,AGGGTGGC,0.173
11,CGCTCGAG,0.00335
12,GACTGAGA,0.0163
13,CTACTCCA,-0.0498
14,ACTCGCCT,0.0445
15,ACGTGTTG,-0.0244
16,CGTCCCAG,-0.203
17,GTAGGCCA,-0.0482
18,AGATGCTC,-0.0987
19,CAGTGGCG,0.14
20,CTCGCAGC,0.109
21,CGACATAA,-0.125
22,ACCGATGG,0.0908

row,Sequence,PBM E-score
1,AGCTATAC,-0.077
2,GAAGTTGC,-0.309
3,CCCAACGA,-0.118
4,ACCTTAGT,0.0334
5,GACGACTC,0.358
6,TAAGCAGA,-0.113
7,CCAACGCA,0.0132
8,GAAGTTTA,-0.251
9,AGTCGGCG,0.293
10,ACTCGTGC,0.0626
11,GAGGGATC,-0.0513
12,ATGGCTCA,0.293
13,AATGTCCT,-0.185
14,AGGTACTC,0.0984
15,ACCTGCGG,-0.0708
16,CACGATCA,0.145
17,CGCATGCC,0.13
18,AGCTGAAA,-0.158
19,AGGACTCA,0.376
20,AACCTGAC,0.128
